Where “and” joins values, the source holds several entries; their conditions need not be identical. Equal entries are not always repeated. About 2,200 (0.56%) of roughly 390,000 compounds were called active. Inconclusive means that the source gave no clear call. Such entries were picked first, then a sample of the others. The call rests on the fitted dose curve; in most records, active means well fitted inhibition curve with a large enough effect; inconclusive means small, poorly fitted or top-dose-only effect; inactive means no such curve, though single readings can be large or run the other way. Potencies of inconclusive entries are doubtful fits and often do not repeat.
molecular target: Chromobox protein homolog 1 (Homo sapiens) (UniProt P83916); assay: HTS for Inhibitors of HP1-beta Chromodomain Interactions with Methylated Histone Tails; settings: AlphaScreen HP1-beta / biotin-H3K9me3 peptide binding; series mostly up to 114 µM; activity change, negative = inhibition: at the top concentration; further: nearly all actives have a fitted effect of over 70% in size
Outline: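 HP1-beta protein (50 nM final) preincubated 30 min at room temperature with biotinylated H3(1-18)K9me3 peptide (50 nM) in PBS pH 7.4, 0.01% Tween-20, then compound added for 30 min. AlphaScreen streptavidin donor/nickel chelate acceptor beads (10 ug/mL final), 30 min dark, luminescence read.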
Potency means the concentration at half of the fitted maximal effect; tags describe the fitted curve by direction and shape.

Sequence of UniProt P83916 (P83916 whole entry, looked up): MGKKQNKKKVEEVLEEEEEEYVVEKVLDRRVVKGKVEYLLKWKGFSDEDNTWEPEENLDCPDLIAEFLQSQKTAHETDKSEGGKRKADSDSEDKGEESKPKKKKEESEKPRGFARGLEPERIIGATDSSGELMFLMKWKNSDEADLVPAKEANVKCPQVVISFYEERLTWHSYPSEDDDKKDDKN

SMILES	activity change, negative = inhibition	Potency
CCOC(=O)C1=C(C)NC(C)=C(C(=O)OCC)C1C(=O)OCC(=O)NC1(C#N)CCCCC1	inactive: 16.4%	–
COc1ccc(C)cc1NS(=O)(=O)c1cn(C)c(=O)n(C)c1=O	inactive: 25.6%	–
CCN(c1ccc(NC(=O)COC(=O)c2ccc(C)s2)cc1)C(C)C	–	inconclusive: 39.8 µM [inhibitor, partial curve]
COc1cc(C2Nn3c(nnc3-c3ccccc3OC)S2)ccc1O (configuration not stated)	–	inconclusive: 22.4 µM [inhibitor, partial curve, poor fit]
COC(=O)C(NC(=O)CCC(=O)N[C@@H](C(=O)OC)c1ccccc1)c1ccccc1 (some centres not stated)	inactive: 16.6%	–
CC(=O)Nc1ccc(C=CC=Cc2cccc([N+](=O)[O-])c2)cc1	–	inconclusive: 79.4 µM [inhibitor, single point]
Cc1ccc(C(=O)N/C(=C\c2cccs2)C(=O)NCCc2ccccn2)cc1C	–	inconclusive: 50.1 µM [inhibitor, partial curve, poor fit]
COc1cc(OC)cc(C(=O)NCC(=O)N2CC=C(c3ccccc3)CC2)c1	inactive: 17.3%	–
CCc1cc2c(SCC(=O)O)ncnc2s1	inactive: 11.8%	–
COc1ccc(C=CC(=O)c2cc(O)ccc2O)cc1	–	inconclusive: 56.2 µM [inhibitor, partial curve, poor fit]
O=C(CS(=O)(=O)Cc1ccccc1)N1CCN(Cc2ccc3c(c2)OCO3)CC1	–	inconclusive: 39.8 µM [inhibitor, single point]
O=C(O)CCN1C(=O)/C(=C\c2cccc(Oc3ccccc3)c2)SC1=S	–	inconclusive: 56.2 µM [inhibitor, single point]
COc1ccc(NS(=O)(=O)c2ccc(C)cc2)c([N+](=O)[O-])c1	–	inconclusive: 15.8 µM [inhibitor, full curve]
O=C(NCc1ccco1)c1cccc2c1C(=O)c1ccc(N3CCC(Cc4ccccc4)CC3)cc1S2(=O)=O	inactive: 29.8%	–
O=C(O)c1cccc(-n2cccc2/C=C2\NC(=O)N(Cc3ccc(F)cc3)C2=O)c1	–	active: 79.4 µM
O=C1C(NS(=O)(=O)c2cccs2)=C(N2CCN(c3cccc(C(F)(F)F)c3)CC2)C(=O)c2ccccc21	–	inconclusive: 7.08 µM [inhibitor, full curve, poor fit]
Cc1[nH]c2ccccc2c1N=Nc1ccc(F)cc1	–	inconclusive: 39.8 µM [inhibitor, partial curve]
COc1cc(C(c2nnnn2C(C)(C)C)N2CCN(c3nc4ccccc4s3)CC2)ccc1O (configuration not stated)	–	inconclusive: 70.8 µM [inhibitor, single point]
CCN1c2ccccc2-n2cccc2C12CCN(C(=O)Nc1ccccc1Br)CC2	inactive: -1.55% [at 57 µM]	–
CC(=O)Nc1cccc(NC(=O)CSc2ncc(-c3ccc(Cl)cc3)n2Cc2ccco2)c1	–	inconclusive: 5.01 µM [inhibitor, full curve, poor fit]
COc1cc(OC)c(OC)cc1CN1CCSCC1	–	inconclusive: 56.2 µM [inhibitor, partial curve, poor fit]
O=C1C2C(c3ccccc3)(C(=O)N1c1ccc(Cl)cc1)C2(c1ccccc1)c1ccccc1 (configuration not stated)	–	inconclusive: 39.8 µM [inhibitor, single point]
CC[N+](CC)(CC#Cc1ccccc1)CC(=O)c1ccc(Cl)cc1	inactive: 10.7%	–

SMILES	activity change, negative = inhibition	Potency
Nc1nn(-c2ccccc2)c(N)c1N=Nc1ccccc1	–	inconclusive: 50.1 µM [inhibitor, partial curve]
Cc1ccc(S(=O)(=O)N2CCOCC2)cc1NC(=O)CN1CCC(Cc2ccccc2)CC1	–	inconclusive: 17.8 µM [inhibitor, full curve]
CC(C)(C)c1ccc(OCCNCc2ccccc2)cc1	–	inconclusive: 79.4 µM [inhibitor, single point]
COc1ccc(OC)c2sc(N3CCN(c4ccccc4)CC3)nc12	–	inconclusive: 22.4 µM [inhibitor, single point]
COCC(C)n1c(-c2ccc3c(c2)NC(=O)CO3)csc1=Nc1ccc(OC(F)F)cc1 (configuration not stated)	–	inconclusive: 14.1 µM [inhibitor, full curve, poor fit] and inconclusive: 5.62 µM [inhibitor, full curve]
O=C(c1ccc([N+](=O)[O-])cc1)n1nc(-c2ccccc2)nc1NCc1ccc(F)cc1	–	inconclusive: 50.1 µM [inhibitor, partial curve]
Cc1cccnc1NC(=O)c1ccc([N+](=O)[O-])o1	inactive: 29.3%	–
CC(C)CN(C(=O)COC(=O)Cc1c[nH]c2ccccc12)C1CCS(=O)(=O)C1 (configuration not stated)	–	inconclusive: 39.8 µM [inhibitor, single point]
CCC1(c2ccccc2)NC(=O)N(CC(=O)Nc2ccc3c(C)cc(=O)oc3c2)C1=O (configuration not stated)	inactive: 9.31%	–
COc1cc(C)c(NC(=O)C(=S)NCCc2ccccc2)cc1C	–	inconclusive: 12.6 µM [inhibitor, full curve]
Cc1cc(C(=O)Cn2nc(C(=O)O)c3ccccc3c2=O)c(C)n1-c1ccccc1	–	inconclusive: 22.4 µM [inhibitor, single point]
COc1ccc(C(=S)Nc2ccc(N(C)C)cc2)cc1	–	inconclusive: 3.55 µM [inhibitor, full curve]
S=C(NN=C1CCN(Cc2ccccc2)CC1)NC1CCCCC1	–	inconclusive: 31.6 µM [inhibitor, partial curve]
CC(NC(=O)C1CCN(C(=O)N2CCOc3ccc(Cl)cc32)CC1)c1ccccc1 (configuration not stated)	inactive: -32.5%	–
CCOc1ccc(C(=O)NC(=S)Nc2ccccc2OC)cc1[N+](=O)[O-]	–	inconclusive: 28.2 µM [inhibitor, single point]
Cc1snc(SCC(=O)c2ccc([N+](=O)[O-])cc2)c1C#N	–	inconclusive: 25.1 µM [inhibitor, full curve]
O=C(Nc1ccc(Oc2ccc(NC(=O)c3ccco3)c(NC(=O)c3ccco3)c2)cc1)c1ccco1	–	active: 5.01 µM
Cc1cc(N)ccc1NC(=O)CN1CCCC1	–	inconclusive: 70.8 µM [inhibitor, single point]
N#CCC(=O)NNc1c([N+](=O)[O-])cc(C(F)(F)F)cc1[N+](=O)[O-]	–	inconclusive: 44.7 µM [inhibitor, partial curve]
Nc1nc(-c2ccc(Cl)cc2)c(N=Nc2ccc(S(=O)(=O)N3CCOCC3)cc2)s1	–	inconclusive: 35.5 µM [inhibitor, partial curve, poor fit]
CCOc1ccc(C(=O)NCc2cccs2)cc1	–	inconclusive: 39.8 µM [inhibitor, single point]
CCOC(=O)N1CCC(N2Cc3cccc(C(=O)NC(C)c4ccc5c(c4)OCCO5)c3C2=O)CC1 (configuration not stated)	inactive: 22.5%	–
COc1ccc(N2CCN(C(=O)c3ccccc3NS(=O)(=O)c3ccccc3)CC2)cc1	–	inconclusive: 70.8 µM [inhibitor, partial curve, poor fit]

SMILES	activity change, negative = inhibition	Potency
CCOc1ccc(N)c(SSc2cc(OCC)ccc2N)c1	–	active: 17.8 µM
Cc1ccc(C)c(OCC(=O)N2CCc3ccccc3C2)c1	inactive: 45.7%	–
CNC(=S)N/N=C(\C)c1ccc(N2CCOCC2)cc1	inactive: 30.6%	–
Cc1ccc(S(=O)(=O)N(CC(=O)N2CCc3ccccc3C2)c2ccc(C)c(C)c2)cc1	inactive: 27.7%	–
O=C(OC(c1ccccc1)c1nccc2ccccc12)c1cc([N+](=O)[O-])cc([N+](=O)[O-])c1 (configuration not stated)	–	inconclusive: 3.16 µM [inhibitor, partial curve, poor fit]
CC(=O)Nc1ccc(NC(=O)CCn2nnc3ccccc32)cc1	–	inconclusive: 22.4 µM [inhibitor, partial curve, poor fit]
Cc1ccc(N=Nc2c(C)[nH]n(-c3ccccc3)c2=O)cc1	–	inconclusive: 5.62 µM [inhibitor, full curve]
CC(C)OC(=O)c1c(NC(=O)CCC(=O)O)sc2c1CCCCC2	inactive: 28.3%	–
O=C(NCc1ccccc1)C1CCC(=O)N(CCCN2CCCC2=O)C1 (configuration not stated)	inactive: 30.8%	–
Cc1cc(OCCn2ccnc2)cc(C(C)C)c1	–	active: 22.4 µM
Cc1cc(C)cc(OCC(=O)NNC(=O)c2ccccn2)c1	–	inconclusive: 28.2 µM [inhibitor, single point]
C/C(CCc1oc2ccc(Cl)cc2c1-c1ccc(C)o1)=N\O	–	inconclusive: 31.6 µM [inhibitor, partial curve]
Cc1[nH]c2ccccc2c1C(O)CN1CCN(c2cccc(C(F)(F)F)c2)CC1 (configuration not stated)	–	inconclusive: 70.8 µM [inhibitor, single point]
O=C(N/N=C/c1ccncc1)c1cccc(NC(=O)c2ccc(Cl)cc2)c1	–	inconclusive: 44.7 µM [inhibitor, partial curve]
C/C(=N\Nc1cccc2cccnc12)c1ccccn1	–	inconclusive: 70.8 µM [inhibitor, partial curve]
Cc1ccc(C(=O)CSC2=NC(N)=C(C#N)C3(CCCCC3)C2C(N)=O)cc1 (configuration not stated)	–	inconclusive: 39.8 µM [inhibitor, partial curve, poor fit]
O=C1C=C(NCc2ccc(Cl)cc2)CC(c2ccco2)C1 (configuration not stated)	–	inconclusive: 15.8 µM [inhibitor, partial curve, poor fit]
CCCCN1CC(=O)N2[C@H]3c4cc(C)ccc4OC[C@@H]3[C@H](C(=O)OCC)[C@]2(C)C1=O	inactive: 69.3%	–
CCn1nnc2c(N3CCCC3)ncnc21	–	inconclusive: 12.6 µM [inhibitor, full curve, poor fit]
COc1ccc(C(=O)Nc2ccc3oc(-c4ccc(OC)cc4)nc3c2)cc1	inactive: 28.6%	–
COc1ccc(S(=O)(=O)N2CCN(Cc3cc(OC)c(O)c(OC)c3)CC2)cc1	–	inconclusive: 17.8 µM [inhibitor, full curve]

Source: PubChem BioAssay AID540317 (National Center for Advancing Translational Sciences (NCATS), 2011)
